# Experimental data from the supplement of paper PMC3334620.
# In all, about 33,000 sequences were measured (“E-score (-0.5 to 0.5)”: median about -0.021, highest 2% from about 0.32 on). The list shows a part of the results.
# Biological target: T1, Zap1 (UniProt P47043)
# T1 sequence: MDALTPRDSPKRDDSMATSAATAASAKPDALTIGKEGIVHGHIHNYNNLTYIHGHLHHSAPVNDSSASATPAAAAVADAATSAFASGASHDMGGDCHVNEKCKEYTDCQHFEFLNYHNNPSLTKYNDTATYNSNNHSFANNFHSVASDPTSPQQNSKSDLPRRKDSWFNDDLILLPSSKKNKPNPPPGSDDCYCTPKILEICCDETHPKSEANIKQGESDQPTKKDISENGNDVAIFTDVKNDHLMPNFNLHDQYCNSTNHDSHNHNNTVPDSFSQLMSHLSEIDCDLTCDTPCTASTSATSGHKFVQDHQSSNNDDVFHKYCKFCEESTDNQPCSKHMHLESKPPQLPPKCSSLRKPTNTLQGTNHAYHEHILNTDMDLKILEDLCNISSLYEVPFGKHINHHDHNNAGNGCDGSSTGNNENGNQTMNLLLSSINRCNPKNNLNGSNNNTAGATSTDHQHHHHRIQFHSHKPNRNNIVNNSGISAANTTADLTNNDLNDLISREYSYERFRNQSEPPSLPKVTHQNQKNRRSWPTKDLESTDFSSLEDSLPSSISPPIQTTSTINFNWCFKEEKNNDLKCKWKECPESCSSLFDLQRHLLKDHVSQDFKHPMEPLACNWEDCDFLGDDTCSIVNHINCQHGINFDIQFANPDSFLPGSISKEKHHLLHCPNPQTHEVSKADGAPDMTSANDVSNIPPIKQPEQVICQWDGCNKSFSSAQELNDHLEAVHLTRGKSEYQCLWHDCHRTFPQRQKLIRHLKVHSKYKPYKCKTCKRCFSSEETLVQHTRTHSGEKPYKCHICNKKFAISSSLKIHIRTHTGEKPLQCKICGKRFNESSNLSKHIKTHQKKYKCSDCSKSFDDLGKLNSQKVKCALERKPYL
# Experiment: PBM E-score (8-mer binding enrichment) (E-score (-0.5 to 0.5)); higher = stronger / more preferred TF binding; most listed sequences are background and not binding sites
# Conditions: protein concentration: 200 nM; construct: GST-full length
# How it was run: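 The E-score, a modified Wilcoxon-Mann-Whitney statistic, was computed by the Universal PBM Analysis Suite for every ungapped eight-base word pooled with its reverse complement. Scans behind it were normalised with masliner after bound GST-tagged yeast transcription factors were detected with fluorescent anti-GST. The proteins, at about 100-200 nM, had been applied to universal all-10-mer Agilent arrays made double-stranded by primer extension.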
row,Sequence,PBM E-score
1,CAAGCATC,-0.105
2,CGTTATTA,0.114
3,ACAAGGAC,-0.0119
4,CTCGTCTC,-0.196
5,CTCTTCAG,0.0335
6,CGTTTGTA,0.123
7,CCTACGGA,-0.232
8,GCCGTTTA,-0.16
9,GAAGTGGC,-0.106
10,CCGACATC,0.06
11,ATGTTCAC,0.0804
12,AGGCGCTG,-0.194
13,TATCCGCA,0.112
14,GAGAATCA,-0.128
15,CATGGGGA,0.151
16,ATTCCAGA,-0.137
17,GATGTCAA,-0.291
18,AGTGCGGG,-0.0868
19,CATGCTCC,-0.316
20,CTTTTGAC,0.101
21,AGAACAGA,-0.0561
22,CGACCAAG,-0.00356
23,TGGAAAAA,0.162
24,AGTACTAG,0.175

row,Sequence,PBM E-score
1,AATGAATC,-0.148
2,TAGAGCCA,-0.11
3,CATGAGTC,-0.0381
4,CACTTCTG,-0.155
5,CATTTTTA,-0.0145
6,CACTAATC,0.132
7,AGCTGCTA,-0.241
8,GCTACGAC,-0.114
9,AACGACTC,-0.28
10,CAGCGCGC,-0.144
11,ACCGGCAG,-0.136
12,CTGGAAAC,-0.00917
13,GCTACACA,-0.175
14,CTACATTC,-0.127
15,GCCCGTCA,-0.341
16,GGAAAACC,0.134
17,ATTGGGAA,-0.0739
18,CTATTCCC,-0.178
19,TGCTTTAA,0.0812
20,GCGGCCCA,-0.0162
21,GACGTTCA,-0.224
22,CCGAGTGC,-0.205
23,CCCTTACA,0.0265
24,CATGTTCA,-0.217

row,Sequence,PBM E-score
1,AATCCTGA,-0.0744
2,ATTAGTAA,0.128
3,GAGCCCTA,-0.139
4,ATCGTTCG,-0.129
5,CGTATACA,-0.0506
6,CACGAATC,-0.0402
7,CATCCATC,-0.221
8,GCGTCGAC,-0.0199
9,GTTCTTGA,0.262
10,AACCCTGG,0.392
11,AGTGGGTG,0.0541
12,CCTTGACA,0.036
13,CTTTTTGA,0.138
14,ACATATCT,0.0442
15,AATGTGTG,0.0602
16,CGCTGTTA,-0.101
17,ACTTAGCC,-0.254
18,GTGTCGAA,-0.0374
19,CCGACTTA,-0.0765
20,AACAAAGG,0.164
21,CCACCACA,0.00801
22,ATTGTGTA,0.122
23,AGAGTCAG,-0.145
24,AGCAGGAG,-0.116

row,Sequence,PBM E-score
1,AACCTAAA,0.356
2,AGATGATA,0.0556
3,CACACTTC,0.0215
4,CATTGCCG,-0.00464
5,AGTAGACA,0.119
6,CCCGTCAA,-0.0938
7,AGGTACGA,-0.0106
8,GATGAATA,0.069
9,GAAGCCAC,-0.213
10,GAAGCAGA,-0.198
11,AAACAGCT,-0.0665
12,AGTCCCAT,-0.258
13,TCTGTCCA,0.0414
14,CAGGAGTA,0.0199
15,GAACCCTA,0.272
16,AGAGTTTC,-0.223
17,CGGATTTC,-0.05
18,TCAGGGGA,-0.0374
19,AAATCTCG,-0.108
20,CCACCTTC,0.0785
21,CCCCGCAA,-0.00597
22,CCTCTCAA,0.067
